We go through 4 compounds from PMC9683570.

Where a name gives a salt, the structure may show the parent alone.

The test system of data set [1] is CaV1.2 channel. The arrangement: method as in PMID 27060526. The settings on record: manual whole cell patch clamp, 36 ± 1 °C, 4 mM Ba2+, cited from earlier work; for IC50: rabbit ventricular AP waveform at 10 s interval, current at repolarizing phase, read-out: IC50 (Crumb et al. 2016).
Data set [2] has as its system CaV1.2 channel. The settings on record: maximum vs. minimum IC50 of Crumb et al. 2016 and Li et al. 2018.

As to `CN(C)CCCN1c2ccccc2Sc2ccc(Cl)cc21` [Chlorpromazine], in the data set with CaV1.2 channel [1], the IC50 is 8.2 µM and the “nH (Crumb et al. 2016)” value is reported as 0.8. The “Ratio (max-to-min) of IC50s” value in the data set with CaV1.2 channel [2] was determined as 1.3.

In the case of `CC(C)COCC(CN(Cc1ccccc1)c1ccccc1)N1CCCC1` (centres unmarked) [Bepridil], in the data set on CaV1.2 channel [1], the concentration for half-maximal inhibition (IC50) is 2.8 µM and the “nH (Crumb et al. 2016)” value is on record as 0.6. Further, the “Ratio (max-to-min) of IC50s” value in the data set with CaV1.2 channel [2] was 228.

In the case of `COc1ccc([C@@H]2Sc3ccccc3N(CCN(C)C)C(=O)[C@@H]2OC(C)=O)cc1` [Diltiazem, diltiazem hydrochloride], in the data set with CaV1.2 channel [1], the half-maximal inhibitory concentration (IC50) was 0.1 µM and the “nH (Crumb et al. 2016)” value is 0.7.

In the case of `Cc1nccn1CC1CCc2c(c3ccccc3n2C)C1=O` (centres unmarked) [Ondansetron], in the data set on CaV1.2 channel [1], the IC50 was 22.6 µM and the “nH (Crumb et al. 2016)” value is given as 0.8. Besides, the “Ratio (max-to-min) of IC50s” value in the data set with CaV1.2 channel [2] was 412.
